The list shows a part of the results.

For the test, the target named is T1, MBP-FoxP1dN (Mus musculus, UniProt P58462 326-579).
T1 sequence: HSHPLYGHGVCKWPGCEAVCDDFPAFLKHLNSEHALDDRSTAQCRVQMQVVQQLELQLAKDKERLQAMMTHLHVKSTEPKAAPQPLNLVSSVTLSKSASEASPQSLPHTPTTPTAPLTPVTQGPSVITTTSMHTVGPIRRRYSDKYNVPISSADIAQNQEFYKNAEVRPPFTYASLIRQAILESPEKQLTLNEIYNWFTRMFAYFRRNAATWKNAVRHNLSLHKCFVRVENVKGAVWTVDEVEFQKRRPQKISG
Description: PD-seq (MBP pull-down with sequencing); 20 mM Tris-HCl pH 7.5, 100 mM NaCl, 1.5 mM MgCl2, 0.4 uM protein, 0.1 uM dsDNA library, 30 min, room temperature, amylose pull-down; high values mean tight binding. The following applies: protein: recombinant; tags: His6-MBP; chain copies: 2; dsDNA, one strand shown. A digest of the protocol:
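Binding is given as reads-per-million enrichment, pull-down over input, with replicates pooled. The bait was an N-terminus-lacking mouse FoxP3 or FoxP1 fragment with a His6-MBP tag, expressed in E. coli and used at 0.4 µM with 0.1 µM Klenow-filled degenerate double-stranded DNA library for 30 min at room temperature in Tris pH 7.5 buffer with NaCl and MgCl2. Amylose resin pull-down with three washes was followed by proteinase K release, PCR barcoding and Illumina sequencing.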
With “GATGATTGTTCTCCCAGCTGATGAATTCTTCCCGTCGAGTAAACAAATTTTCCTAATCTTTCTGTTCAAGCGCCATCTAC”, the binding signal was 0.804 RPM ratio (pull-down/input).

Turning to “GATGATTGTTCTCCCAGCTGATGAATTACCCTTTTCGAGTAAACAAATTTTCCTAATCTTTCTGTTCAAGCGCCATCTAC”, the binding signal is 0.912 RPM ratio (pull-down/input). As for “GATGATTGTTCTCCCAGCTGATGAATTGACTGAATCGAGTAAACAAATTTTCCTAATCTTTCTGTTCAAGCGCCATCTAC”, the figure is 1.09 RPM ratio (pull-down/input). As for “GATGATTGTTCTCCCAGCTGATGAATTAAAGGACTCGAGTAAACAAATTTTCCTAATCTTTCTGTTCAAGCGCCATCTAC”, the figure is 0.814 RPM ratio (pull-down/input).

“GATGATTGTTCTCCCAGCTGATGAATTCCCAACTTCGAGTAAACAAATTTTCCTAATCTTTCTGTTCAAGCGCCATCTAC”: the binding signal is 0.821 RPM ratio (pull-down/input). Consider “GATGATTGTTCTCCCAGCTGATGAATTTCGCAGGTCGAGTAAACAAATTTTCCTAATCTTTCTGTTCAAGCGCCATCTAC”, for which the binding signal is 0.789 RPM ratio (pull-down/input).

Take “GATGATTGTTCTCCCAGCTGATGAATTGCGATATTCGAGTAAACAAATTTTCCTAATCTTTCTGTTCAAGCGCCATCTAC”: the binding signal is 1.18 RPM ratio (pull-down/input). As for “GATGATTGTTCTCCCAGCTGATGAATTGCGTGCATCGAGTAAACAAATTTTCCTAATCTTTCTGTTCAAGCGCCATCTAC”, the figure is 1.33 RPM ratio (pull-down/input). Take “GATGATTGTTCTCCCAGCTGATGAATTCTCGCGGTCGAGTAAACAAATTTTCCTAATCTTTCTGTTCAAGCGCCATCTAC”: the binding signal is 0.872 RPM ratio (pull-down/input).

For the sequence “GATGATTGTTCTCCCAGCTGATGAATTACGCCTTTCGAGTAAACAAATTTTCCTAATCTTTCTGTTCAAGCGCCATCTAC”, the binding signal was 0.999 RPM ratio (pull-down/input). “GATGATTGTTCTCCCAGCTGATGAATTAGCTATGTCGAGTAAACAAATTTTCCTAATCTTTCTGTTCAAGCGCCATCTAC”: the binding signal was 0.923 RPM ratio (pull-down/input). Consider “GATGATTGTTCTCCCAGCTGATGAATTATATTTCTCGAGTAAACAAATTTTCCTAATCTTTCTGTTCAAGCGCCATCTAC”, for which the binding signal was 1.15 RPM ratio (pull-down/input).

On to “GATGATTGTTCTCCCAGCTGATGAATTTTCCGTATCGAGTAAACAAATTTTCCTAATCTTTCTGTTCAAGCGCCATCTAC”, for which the binding signal is 0.944 RPM ratio (pull-down/input). The result for “GATGATTGTTCTCCCAGCTGATGAATTTACAAGGTCGAGTAAACAAATTTTCCTAATCTTTCTGTTCAAGCGCCATCTAC” reads 1.23 RPM ratio (pull-down/input). The result for “GATGATTGTTCTCCCAGCTGATGAATTAGCACGGTCGAGTAAACAAATTTTCCTAATCTTTCTGTTCAAGCGCCATCTAC” reads 0.808 RPM ratio (pull-down/input); that for “GATGATTGTTCTCCCAGCTGATGAATTGTAATTTTCGAGTAAACAAATTTTCCTAATCTTTCTGTTCAAGCGCCATCTAC”, 1.19 RPM ratio (pull-down/input); that for “GATGATTGTTCTCCCAGCTGATGAATTGGAGTTATCGAGTAAACAAATTTTCCTAATCTTTCTGTTCAAGCGCCATCTAC”, 0.984 RPM ratio (pull-down/input). The result for “GATGATTGTTCTCCCAGCTGATGAATTACAAGTGTCGAGTAAACAAATTTTCCTAATCTTTCTGTTCAAGCGCCATCTAC” reads 1.27 RPM ratio (pull-down/input). In the case of “GATGATTGTTCTCCCAGCTGATGAATTGTAAGATTCGAGTAAACAAATTTTCCTAATCTTTCTGTTCAAGCGCCATCTAC”, the binding signal was 0.971 RPM ratio (pull-down/input). For “GATGATTGTTCTCCCAGCTGATGAATTGTAGTTTTCGAGTAAACAAATTTTCCTAATCTTTCTGTTCAAGCGCCATCTAC”, the binding signal is 1.43 RPM ratio (pull-down/input). As for “GATGATTGTTCTCCCAGCTGATGAATTACAATTGTCGAGTAAACAAATTTTCCTAATCTTTCTGTTCAAGCGCCATCTAC”, the figure is 1.4 RPM ratio (pull-down/input).

Regarding “GATGATTGTTCTCCCAGCTGATGAATTTCTTAGTTCGAGTAAACAAATTTTCCTAATCTTTCTGTTCAAGCGCCATCTAC”, the binding signal is 0.903 RPM ratio (pull-down/input).

In the case of “GATGATTGTTCTCCCAGCTGATGAATTCATTGGTTCGAGTAAACAAATTTTCCTAATCTTTCTGTTCAAGCGCCATCTAC”, the binding signal is 0.877 RPM ratio (pull-down/input).

As to “GATGATTGTTCTCCCAGCTGATGAATTAGCAGTGTCGAGTAAACAAATTTTCCTAATCTTTCTGTTCAAGCGCCATCTAC”, the binding signal is 0.94 RPM ratio (pull-down/input). “GATGATTGTTCTCCCAGCTGATGAATTAACGCAGTCGAGTAAACAAATTTTCCTAATCTTTCTGTTCAAGCGCCATCTAC”: the binding signal was 0.975 RPM ratio (pull-down/input). As for “GATGATTGTTCTCCCAGCTGATGAATTTTGTGAATCGAGTAAACAAATTTTCCTAATCTTTCTGTTCAAGCGCCATCTAC”, the figure is 1.06 RPM ratio (pull-down/input); as for “GATGATTGTTCTCCCAGCTGATGAATTTCTTTGTTCGAGTAAACAAATTTTCCTAATCTTTCTGTTCAAGCGCCATCTAC”, 0.994 RPM ratio (pull-down/input). Consider “GATGATTGTTCTCCCAGCTGATGAATTAGTCTTTTCGAGTAAACAAATTTTCCTAATCTTTCTGTTCAAGCGCCATCTAC”, for which the binding signal was 0.951 RPM ratio (pull-down/input). In the case of “GATGATTGTTCTCCCAGCTGATGAATTACCGCGGTCGAGTAAACAAATTTTCCTAATCTTTCTGTTCAAGCGCCATCTAC”, the binding signal is 0.87 RPM ratio (pull-down/input). “GATGATTGTTCTCCCAGCTGATGAATTCTTCGGCTCGAGTAAACAAATTTTCCTAATCTTTCTGTTCAAGCGCCATCTAC”: the binding signal was 0.765 RPM ratio (pull-down/input). The result for “GATGATTGTTCTCCCAGCTGATGAATTCAAAACGTCGAGTAAACAAATTTTCCTAATCTTTCTGTTCAAGCGCCATCTAC” reads 1.01 RPM ratio (pull-down/input).

As to “GATGATTGTTCTCCCAGCTGATGAATTTCTGTTGTCGAGTAAACAAATTTTCCTAATCTTTCTGTTCAAGCGCCATCTAC”, the binding signal is 2.16 RPM ratio (pull-down/input).

The record behind these values is publication PMC12820563, “FoxP3 forms a head-to-head dimer in vivo and stabilizes its multimerization on adjacent microsatellites”.
